The list shows a part of the results. Sequences were assembled here from the parent chain. Values near 0.05 are background.
B1: TEV protease; numbered along this chain (parent)
chain: MGESLFKGPRDYNPISSSICHLTNESDGHTTSLYGIGFGPFIITNKHLFRRNNGTLVVQSLHGVFKVKDTTTLQQHLVDGRDMIIIRMPKDFPPFPQKLKFREPQREERICLVTTNFQTKSMSSMVSDTSCTFPSGDGIFWKHWIQTKDGQCGSPLVSTRDGFIVGIHSASNFTNTNNYFTSVPKNFMELLTNQEAQQWVSGWRLNADSVLWGGHKVFMVKPEEPFQPVKEATQL

Variants of: B1
Experiment: raw area under fraction-flipped curve 0-4 h after induction (AUC4h, not background-subtracted), DNA-recorder readout of cleavage of the substrate (dimensionless); higher = more cleavage of the substrate by the protease variant
Settings: temperature: 34 °C; time window: 0-4 h after rhamnose induction
Description: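 In vivo DNA recorder in E. coli TOP10(DE3) ΔrhaA at 34 °C. Each TEVp single-site mutant (parent TEVp 0) is paired with a single-site variant of the 7-mer TEVs (canonical ENLYFQ|S). The substrate sits between flexible linkers in a Bxb1-sfGFP-TEVs-SsrA fusion, so cleavage stabilises Bxb1 and speeds flipping of a recombination array, read by NGS. The value is the raw area under the fraction-flipped curve over 0-4 h after rhamnose induction (AUC4h), with ≥20 reads per time point. It is not background-subtracted; inactive controls average about 0.047.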
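Note: Bxb1 expression induced with 0.2% (w/v) L-rhamnose at OD600 near 0.5, cultures sampled hourly, flipped fraction per protease–substrate barcode pair counted by paired-end Illumina sequencing.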

| Variant | area with substrate ENLYAQS | area with substrate ENLYDQS | area with substrate ENLYEQS | area with substrate ENLYGQS | area with substrate ENLYIQS | area with substrate ENLYKQS | area with substrate ENLYLQS | area with substrate ENLYMQS | area with substrate ENLYNQS | area with substrate ENLYPQS | area with substrate ENLYQQS | area with substrate ENLYRQS | area with substrate ENLYVQS | area with substrate ENLYWQS | area with substrate ENLYYQS | area with substrate ENLYHQS | area with substrate ENLYSQS | area with substrate ENLYTQS | area with substrate ENLYCQS |
| --- | --- | --- | --- | --- | --- | --- | --- | --- | --- | --- | --- | --- | --- | --- | --- | --- | --- | --- | --- |
| A232Q | 0.105 | 0.0604 | 0.061 | 0.0692 | 0.101 | 0.0602 | 0.0932 | 0.0871 | 0.0725 | 0.0743 | 0.0553 | 0.0616 | 0.0964 | 0.102 | 0.0591 | – | – | – | – |
| S32F | 0.0738 | – | 0.0624 | 0.0661 | 0.125 | 0.0691 | 0.0748 | 0.0726 | 0.07 | 0.0661 | 0.0799 | 0.0546 | 0.0856 | 0.0705 | – | 0.0691 | 0.0532 | 0.0671 | – |
| W141H | 0.0642 | 0.0599 | 0.0579 | 0.0632 | 0.0932 | 0.0634 | 0.0611 | 0.0645 | – | 0.0541 | – | 0.0499 | 0.0941 | 0.0486 | – | 0.0641 | 0.0598 | 0.0513 | – |
| L73V | 0.0686 | 0.0841 | 0.056 | 0.0501 | 0.0956 | – | 0.0798 | 0.0791 | 0.0645 | 0.0679 | 0.0648 | 0.0547 | – | 0.092 | – | 0.0646 | 0.0799 | 0.0795 | 0.0709 |
| L112K | 0.0707 | 0.0665 | 0.0643 | 0.0517 | 0.136 | – | 0.0632 | 0.0719 | 0.0584 | 0.0604 | 0.0591 | 0.0632 | 0.103 | – | 0.0606 | 0.0653 | 0.0818 | 0.0717 | – |
| L112A | 0.048 | 0.0592 | 0.0522 | 0.0607 | 0.0967 | 0.0477 | – | 0.0741 | 0.0637 | 0.0585 | 0.0547 | – | 0.079 | – | 0.0649 | 0.0693 | – | 0.0596 | 0.0744 |
| E223L | 0.0674 | 0.0609 | 0.0577 | 0.0614 | 0.146 | 0.0615 | 0.0682 | 0.0945 | 0.062 | 0.0824 | 0.0671 | 0.0532 | 0.102 | 0.0792 | 0.0643 | 0.0614 | 0.0684 | – | 0.0672 |
| G37Q | 0.0124 | 0.0523 | 0.0631 | – | – | 0.0609 | 0.0518 | 0.0646 | 0.0534 | – | 0.0775 | 0.05 | 0.0766 | 0.0558 | – | 0.0489 | – | 0.0593 | – |
| T176E | 0.0695 | 0.0529 | 0.0648 | 0.0522 | 0.0597 | 0.0578 | – | 0.0814 | – | 0.079 | – | 0.0598 | 0.1 | 0.148 | 0.0508 | 0.0637 | – | – | – |
| V64G | 0.05 | – | 0.0698 | 0.0591 | – | 0.0498 | – | – | – | – | 0.0651 | – | – | 0.0779 | – | 0.0578 | 0.0648 | – | – |
| P104S | 0.0646 | – | 0.0619 | 0.0411 | – | 0.0499 | 0.0583 | 0.0469 | 0.0514 | 0.0557 | 0.0558 | 0.0568 | – | 0.0345 | – | 0.0465 | 0.0396 | – | 0.0644 |
| V165C | 0.071 | 0.0579 | 0.0625 | – | 0.128 | 0.0764 | – | 0.0732 | 0.0745 | – | 0.06 | – | 0.117 | – | 0.0536 | 0.0651 | 0.0477 | – | – |

Source: the supplement of paper PMC12217912
